Where two headings read alike, the source gives them in different places. Blank lines part the entries; values can stand above or below the binder they belong to.
Columns and labels:
recombinant human VEGF-C [1] = target: T1, recombinant human VEGF-C (human, UniProt P49767 103-227, limits assumed); assay: cell-based or functional assay
T1 sequence (looked up): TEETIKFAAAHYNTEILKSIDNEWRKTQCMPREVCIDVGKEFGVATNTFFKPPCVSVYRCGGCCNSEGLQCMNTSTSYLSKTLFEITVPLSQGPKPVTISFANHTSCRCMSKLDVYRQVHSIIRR

human PlGF [2] = target: T2, human PlGF (human, UniProt P49763-2 19-149, limits assumed); assay: SPR Biacore; Fc fusion captured on anti-human IgG (Fc) antibody chip, PlGF as analyte, 1:1 model
T2 construct: also called P1GF; PGF
T2 sequence (looked up): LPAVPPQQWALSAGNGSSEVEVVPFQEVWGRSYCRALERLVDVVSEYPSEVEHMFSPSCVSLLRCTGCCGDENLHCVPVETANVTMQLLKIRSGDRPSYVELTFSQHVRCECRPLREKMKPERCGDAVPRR
Excerpt: (§1) The 1:1 binding model was used to measure the binding affinity and/or kinetics.

[3] = target: T3, recombinant human VEGF-A165 (human, UniProt P15692-4 27-191); assay: cell-based or functional assay
T3 sequence (looked up): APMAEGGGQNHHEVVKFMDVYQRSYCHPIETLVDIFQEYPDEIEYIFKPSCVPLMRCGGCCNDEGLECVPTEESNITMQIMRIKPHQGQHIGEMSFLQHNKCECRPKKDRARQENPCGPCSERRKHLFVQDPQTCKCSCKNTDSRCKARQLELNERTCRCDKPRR

[4] = target: T3, recombinant human VEGF-A165; assay: SPR Biacore; Fc fusion captured on anti-human IgG (Fc) antibody chip, VEGF-A165 as analyte, 1:1 model
Excerpt: as §1

recombinant human VEGF-C [5] = target: T1, recombinant human VEGF-C; assay: SPR Biacore; Fc fusion captured on anti-human IgG (Fc) antibody chip, VEGF-C as analyte, 1:1 model
Excerpt: as §1

human VEGF-B 167/189 = target: T4, human VEGF-B 167/189 (human, UniProt P49765-2 22-188, limits assumed); assay: SPR Biacore; Fc fusion captured on anti-human IgG (Fc) antibody chip, VEGF-B167/189 as analyte, 1:1 model
T4 sequence (looked up): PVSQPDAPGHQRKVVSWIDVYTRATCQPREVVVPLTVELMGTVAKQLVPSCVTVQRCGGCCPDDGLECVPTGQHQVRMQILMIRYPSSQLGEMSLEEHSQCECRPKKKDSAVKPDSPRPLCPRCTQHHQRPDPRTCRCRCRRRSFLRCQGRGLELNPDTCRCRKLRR
Excerpt: as §1

recombinant human VEGF-C [6] = target: T1, recombinant human VEGF-C; assay: cell-based or functional assay; remark: listed apart in the source
[7] = target: T3, recombinant human VEGF-A165; assay: cell-based or functional assay; remark: listed apart in the source
[8] = target: T3, recombinant human VEGF-A165; assay: cell-based or functional assay; remark: listed apart in the source
recombinant human VEGF-C [9] = target: T1, recombinant human VEGF-C; assay: SPR Biacore; Fc fusion captured on anti-human IgG (Fc) antibody chip, VEGF-C as analyte, 1:1 model; remark: listed apart in the source
Excerpt: as §1

recombinant human VEGF-C [10] = target: T1, recombinant human VEGF-C; assay: cell-based or functional assay; remark: listed apart in the source
human PlGF [11] = target: T2, human PlGF; assay: SPR Biacore; Fc fusion captured on anti-human IgG (Fc) antibody chip, PlGF as analyte, 1:1 model; remark: listed apart in the source
Excerpt: as §1

recombinant human VEGF-D [12] = target: T5, recombinant human VEGF-D (human, UniProt O43915 93-201, limits assumed); assay: cell-based or functional assay
T5 sequence (looked up): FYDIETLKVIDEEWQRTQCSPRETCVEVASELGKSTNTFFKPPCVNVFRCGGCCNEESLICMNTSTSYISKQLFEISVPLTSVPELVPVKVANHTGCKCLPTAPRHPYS

recombinant human VEGF-C [13] = target: T1, recombinant human VEGF-C; assay: cell-based or functional assay; remark: listed apart in the source
recombinant human VEGF-D [14] = target: T5, recombinant human VEGF-D; assay: cell-based or functional assay; remark: listed apart in the source
recombinant human VEGF-C [15] = target: T1, recombinant human VEGF-C; assay: cell-based or functional assay; remark: listed apart in the source
[16] = target: T3, recombinant human VEGF-A165; assay: cell-based or functional assay; remark: listed apart in the source

IC50, inhibition of VEGF-C (40 ng/mL on the sheet) mediated HLEC proliferation, alamarBlue reduction (recombinant human VEGF-C [1]): 20800 pM | Kd (human PlGF [2]): 210 pM | IC50, inhibition of VEGF-A165 (100 ng/mL on the sheet) mediated HLEC proliferation, alamarBlue reduction [3]: 820 pM | Kd [4]: 7.51 pM | Kd (recombinant human VEGF-C [5]): 464 pM | koff (recombinant human VEGF-C [5]): 0.00144 s⁻¹ | kon (recombinant human VEGF-C [5]): 3.11e+06 M⁻¹ s⁻¹ | Kd (human VEGF-B 167/189): 140 pM | IC50, inhibition of VEGF-C (25 ng/mL) mediated VEGFR-2 signaling, VEGFR-2-NFAT-RE luciferase reporter cells (recombinant human VEGF-C [6]): 24500 pM | IC50, inhibition of VEGF-A165 (60 ng/mL) mediated VEGFR-2 signaling, VEGFR-2-NFAT-RE luciferase reporter cells [7]: 231 pM | IC50, inhibition of VEGF-A165 (60 ng/mL) mediated VEGFR-2 signaling, VEGFR-2-NFAT-RE luciferase reporter cells [8]: 210 pM | Kd (recombinant human VEGF-C [9]): 460 pM | IC50, inhibition of VEGF-C (25 ng/mL) mediated VEGFR-2 signaling, VEGFR-2-NFAT-RE luciferase reporter cells (recombinant human VEGF-C [10]): 15800 pM | Kd (human PlGF [11]): 209 pM | koff (human PlGF [11]): 0.00315 s⁻¹ | kon (human PlGF [11]): 1.68e+07 M⁻¹ s⁻¹
B1: EB-101 (Fc fusion)
chain: SDTGRPFVEMYSEIPEIIHMTEGRELVIPCRVTSPNITVTLKKFPLDTLIPDGKRIIWDSRKGFIISNATYKEIGLLTCEATVNGHLYKTNYLTHRQTNTIIDVVLSPSHGIELSVGEKLVLNCTARTELNVGIDFNWEYPSSKHQHKKLVNRDLKTQSGSEMKKFLSTLTIDGVTRSDQGLYTCAASSGLMTKKNSTFVRVHEKYSMTPPTLNITEESHVIDTGDSLSISCRGQHPLEWAWPGAQEAPATGDKDSEDTGVVRDCEGTDARPYCKVLLLHEVHANDTGSYVCYYKYIKARIEGTTAASSYVFVRDFEQPFINKPDTLLVNRKDAMWVPCLVSIPGLNVTLRSQSSVLWPDGQEVVWDDRRGMLVSTPLLHDALYLQCETTWGDQDFLSNPFLVHITGNELGGSGGGSGGGGSGGGGGSGGGG[human IgG1 Fc not given here]
notes: About 200 kDa non-reduced on SDS-PAGE; also called VEGFR-1-D2-VEGFR-2-D3-VEGFR-3-D1D2-Fc

IC50, MIXED STIMULUS VEGF-C (25 ng/mL) + VEGF-D (150 ng/mL): inhibition of HLEC proliferation, alamarBlue reduction; one IC50 for the mixture (recombinant human VEGF-D [12]): 1090 pM | IC50, MIXED STIMULUS VEGF-C (25 ng/mL) + VEGF-D (150 ng/mL): inhibition of HLEC proliferation, alamarBlue reduction; one IC50 for the mixture (recombinant human VEGF-C [13]): 1090 pM | IC50, MIXED STIMULUS VEGF-C (25 ng/mL) + VEGF-D (250 ng/mL on the sheet): inhibition of VEGFR-2 signaling, VEGFR-2-NFAT-RE luciferase reporter cells; one IC50 for the mixture (recombinant human VEGF-D [14]): 3170 pM | IC50, MIXED STIMULUS VEGF-C (25 ng/mL) + VEGF-D (250 ng/mL on the sheet): inhibition of VEGFR-2 signaling, VEGFR-2-NFAT-RE luciferase reporter cells; one IC50 for the mixture (recombinant human VEGF-C [15]): 3170 pM | IC50, inhibition of VEGF-A165 (60 ng/mL) mediated HLEC proliferation, alamarBlue reduction [16]: 505 pM | IC50, inhibition of VEGF-A165 (60 ng/mL) mediated VEGFR-2 signaling, VEGFR-2-NFAT-RE luciferase reporter cells [7]: 811 pM
B2: EB-101BIb (Fc fusion)
chain: SDTGRPFVEMYSEIPEIIHMTEGRELVIPCRVTSPNITVTLKKFPLDTLIPDGKRIIWDSRKGFIISNATYKEIGLLTCEATVNGHLYKTNYLTHRQTNTIIDVVLSPSHGIELSVGEKLVLNCTARTELNVGIDFNWEYPSSKHQHKKLVNRDLKTQSGSEMKKFLSTLTIDGVTRSDQGLYTCAASSGLMTKKNSTFVRVHEKGGSGGGSGGGGSGGGGGSGGGGYSMTPPTLNITEESHVIDTGDSLSISCRGQHPLEWAWPGAQEAPATGDKDSEDTGVVRDCEGTDARPYCKVLLLHEVHANDTGSYVCYYKYIKARIEGTTAASSYVFVRDFEQPFINKPDTLLVNRKDAMWVPCLVSIPGLNVTLRSQSSVLWPDGQEVVWDDRRGMLVSTPLLHDALYLQCETTWGDQDFLSNPFLVHITGNELYDIQLLPRKSLELLVGEKLVLNCTVWAEFNSGVTFDWDYPGKQAERGKWVPERRSQQTHTELSSILTIHNVSQHDLGSYVCKANNGIQRFRESTEVIVHEN[human IgG1 Fc not given here]

Source: US20230399377A1 (ELUMINEX BIOSCIENCES SUZHOU, published 2023)
